# Reference: the BET-seq Pho4 binding data (Le et al. 2018)
# The list shows a part of the results. Values were computed here from the reads of four pooled replicates and scatter widely.
# Molecular target: T1, Pho4 (S. cerevisiae) (UniProt P07270)
# T1 sequence: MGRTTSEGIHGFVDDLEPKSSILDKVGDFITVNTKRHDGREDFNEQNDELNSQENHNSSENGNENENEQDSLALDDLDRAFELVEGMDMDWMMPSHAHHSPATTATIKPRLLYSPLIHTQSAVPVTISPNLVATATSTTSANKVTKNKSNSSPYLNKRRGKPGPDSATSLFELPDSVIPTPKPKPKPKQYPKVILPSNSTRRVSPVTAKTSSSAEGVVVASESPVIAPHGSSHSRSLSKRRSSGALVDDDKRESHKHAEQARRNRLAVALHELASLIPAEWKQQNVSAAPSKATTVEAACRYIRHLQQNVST
# Test: relative binding free energy (BET-seq); higher = weaker binding
# Settings: reference: library average
row,Sequence,relative binding free energy [kcal/mol]
1,CTGGACACGTGTGTTG,0.05
2,GGTGGCACGTGGGTTC,-0.15
3,GGGGACACGTGTGGAG,0.05
4,AGATGCACGTGTAGTA,0.02
5,TGAGCCACGTGGGGCT,-0.16
6,AGTTTCACGTGTTACT,0.26
7,TTGTTCACGTGCAGGA,0.21
8,CGGTGCACGTGAGTCG,0.28
9,TGCAACACGTGGGGGG,-0.13
10,GTTGTCACGTGTTCAA,0.14
11,AGGATCACGTGTGGTT,0.19
12,TATTGCACGTGCGATA,0.05
13,TAGAACACGTGACGGG,0.23
14,AACGTCACGTGTAGGG,-0.07
15,AGTGACACGTGTCAGG,-0.05
16,GAAGCCACGTGGAGGG,0.07
17,GAGATCACGTGGCGTT,0.16
18,GACGGCACGTGTTTGG,0
19,GGCGCCACGTGTGTTT,-0.02
20,TTAAGCACGTGGTGAC,-0.1
21,TATAGCACGTGTAGTG,-0.11
22,TTTCTCACGTGGGCGA,0.19
23,ATGGCCACGTGGTGGG,-0.13
24,TTTTGCACGTGCCTGG,-0.16
25,TTTTCCACGTGTGGGT,0.05

row,Sequence,relative binding free energy [kcal/mol]
1,TTCTTCACGTGCATTG,0.26
2,GGTTCCACGTGTGGCG,0.17
3,TTTTACACGTGGTATT,0.13
4,TGCAGCACGTGTCGGT,0.06
5,TATTCCACGTGGTTCG,0.13
6,TTTGTCACGTGTCACG,0.1
7,TGGGCCACGTGATTAT,0.16
8,GTGACCACGTGGGTTA,-0.19
9,GTTAGCACGTGGGTGG,-0.13
10,TCGGTCACGTGGTGGA,0.05
11,TGGTCCACGTGGGTTT,-0.11
12,ATTATCACGTGGTGGG,0.1
13,GTTTACACGTGCGATG,0.11
14,TAGAGCACGTGAGGCG,0.08
15,ATATTCACGTGAGTGA,0.26
16,TTGGACACGTGGAGGC,0.06
17,GCGTGCACGTGTGGCT,-0.09
18,TTAAGCACGTGAATTG,0.19
19,GTGGGCACGTGCTTGC,-0.11
20,GTTTTCACGTGTTTCT,0.29
21,GAATTCACGTGTAGAA,0.5
22,GGATTCACGTGAGATT,0.47
23,TGATCCACGTGTTAGG,-0.04
24,ATGGTCACGTGCGTGT,0.01
25,GGTGGCACGTGGGAGT,-0.09

row,Sequence,relative binding free energy [kcal/mol]
1,GATATCACGTGAGGGC,0.47
2,TATTGCACGTGAATTG,0.24
3,TTGGTCACGTGTCAGG,0.2
4,TCGTGCACGTGAGGAT,0.24
5,GGACGCACGTGTTGAG,0
6,GGTTTCACGTGGGAGT,0.4
7,GTGTGCACGTGGGAAA,0.06
8,GTGGGCACGTGCCTTG,-0.16
9,ATTGACACGTGGCTGT,-0.15
10,GGAAGCACGTGAGATT,0.15
11,AATCTCACGTGCGGTT,0.26
12,TGGTACACGTGGACGA,0.32
13,ACTTTCACGTGTACGG,0.35
14,GTTTTCACGTGGGTGA,0.28
15,CTTGGCACGTGGGTGA,-0.18
16,GATGGCACGTGGTTTG,-0.07
17,ATGGTCACGTGGTCAT,-0.1
18,TGTGACACGTGAACGG,0.23
19,TAGTGCACGTGCGGGG,-0.05
20,GGGCGCACGTGTTGTA,-0.04
21,TGGAACACGTGAGAGT,0.19
22,GGTGACACGTGATGTT,0.17
23,GAAGGCACGTGGCAAT,0.1
24,ATTGACACGTGGCGGA,-0.05
25,GGGTGCACGTGACGGG,0.23

row,Sequence,relative binding free energy [kcal/mol]
1,GTATGCACGTGGAGAG,0.06
2,AATGACACGTGGGAGG,-0.1
3,GGAGTCACGTGGAGCT,0.13
4,TGCAGCACGTGTGGGC,-0.11
5,TTTTTCACGTGGGATC,0.3
6,TTTGACACGTGCGCAT,0.02
7,AATGGCACGTGGCTTT,-0.19
8,GGGTGCACGTGATGAT,0.23
9,TCAGTCACGTGGGGGG,-0.11
10,GGGTGCACGTGAGTCG,0.34
11,TTTGTCACGTGGCCAG,0.02
12,GCGGGCACGTGGAATG,-0.05
13,TCCATCACGTGGTGTG,0.23
14,GGTGGCACGTGATATA,-0.01
15,ATTAGCACGTGAGAGA,0.09
16,TGGAGCACGTGTGTAC,-0.11
17,GGCGTCACGTGAGCTT,0.24
18,AATTACACGTGTGGGG,0.19
19,TAGGTCACGTGGCTGA,-0.07
20,TTCTACACGTGTATGT,0.1
21,GAGTGCACGTGGGACG,-0.12
22,TTTGACACGTGCAGTT,0.1
23,ATTCTCACGTGTTGAT,0.12
24,TGCAGCACGTGGGGGT,-0.4
25,TAATTCACGTGTTTAT,0.28

row,Sequence,relative binding free energy [kcal/mol]
1,TAGAGCACGTGAGGGT,0.05
2,AGGTACACGTGTGGTA,0.1
3,CGAGGCACGTGGGCTG,-0.21
4,TGTCGCACGTGGTGAA,-0.15
5,GGCAGCACGTGGGGGG,-0.13
6,TTAAGCACGTGTAATT,-0.05
7,AGGAGCACGTGGGTAA,-0.23
8,GTCATCACGTGTGTTT,0.15
9,AAGTGCACGTGACGGG,0.17
10,ATGACCACGTGTGGTG,-0.17
11,TGTCGCACGTGCGGCT,-0.02
12,GCGAGCACGTGGCGGG,-0.24
13,CTGGGCACGTGATTAT,-0.06
14,ATCTGCACGTGTGGTC,0.17
15,TCAGGCACGTGTCTGG,-0.13
16,TTTGGCACGTGGGTCC,-0.23
17,GTTCTCACGTGGTTAA,0.26
18,TACGTCACGTGGTTGA,0.02
19,ATGGTCACGTGCTTTA,-0.03
20,TGAGTCACGTGCTGGA,0.21
21,AGCGTCACGTGGGGAT,-0.11
22,ATTAACACGTGAGGGG,0.18
23,GAAGTCACGTGTAGGA,0.25
24,TTTGCCACGTGATTGA,0.18
25,CGGGACACGTGTTTGG,0.04

row,Sequence,relative binding free energy [kcal/mol]
1,ATGGTCACGTGGTCGT,0.08
2,TCAGGCACGTGGGGAT,-0.18
3,GGGGACACGTGGCTAG,-0.11
4,TTTGTCACGTGTGGAA,0.15
5,TGATACACGTGCGGTA,-0.03
6,GTGCGCACGTGGTAGG,-0.3
7,TTTGGCACGTGTCGAT,0.03
8,AAATTCACGTGATTAT,0.31
9,GTGTGCACGTGAGGTC,0.17
10,GTGTCCACGTGTTTAT,-0.03
11,GAGGTCACGTGTATGG,0.21
12,GCTGGCACGTGGGCAT,-0.18
13,AATTGCACGTGATGGG,0.21
14,GAATTCACGTGTAGTT,0.26
15,AAGCGCACGTGCGGGA,-0.12
16,GGTATCACGTGTTAGA,0.15
17,GGGTTCACGTGGTTAT,0.27
18,AAGGACACGTGAGGAT,0.31
19,TTGGTCACGTGAGGCC,0.3
20,GGATGCACGTGTCAGG,0.05
21,AGTTGCACGTGGACGG,-0.06
